Source: the antibiotic and cytotoxicity screens of Wong et al. (2023)
This is one part of the list.

Experiments:
HSkMC = human skeletal muscle cells; assay: cytotoxicity call (relative viability < 0.9); conditions: 10 µM
HepG2 = assay: cytotoxicity call (relative viability < 0.9); conditions: 10 µM
S. aureus RN4220 = assay: growth inhibition call (relative growth <= 0.2); conditions: 50 µM

Compound	cytotoxicity call (HSkMC)	cytotoxicity call (HepG2)	growth inhibition call (S. aureus RN4220)
CN(C)CC(=O)N[C@@H]1CC[C@H](CC(=O)NCCN2CCCCC2)O[C@@H]1CO	inactive	inactive	inactive
C[C@@H]1CN([C@H](C)CO)C(=O)c2cc(NS(=O)(=O)c3ccc(F)cc3)ccc2O[C@@H](C)CCCCO[C@@H]1CN(C)C(=O)CCC(F)(F)F	inactive	inactive	inactive
C[C@H](CO)N1C[C@H](C)[C@@H](CN(C)C(=O)Nc2ccccc2)Oc2cc(C#C[C@@H](C)O)ccc2S1(=O)=O	inactive	inactive	inactive
C[C@H]1CN([C@@H](C)CO)C(=O)c2cc(NS(C)(=O)=O)ccc2O[C@@H]1CN(C)Cc1ccc(C(F)(F)F)cc1	inactive	inactive	inactive
C[C@H](CO)N1C[C@H](C)[C@H](CN(C)Cc2ccc(C(=O)Nc3ccccc3N)cc2)Oc2ccc(NS(=O)(=O)c3ccc(Cl)cc3)cc2CC1=O	inactive	inactive	inactive
O=c1c(O)c(-c2ccc(O)cc2)oc2ccccc12	inactive	active	inactive
Cc1noc(C)c1S(=O)(=O)N(C)C[C@H]1OCCCC[C@H](C)Oc2ccc(NC(=O)Nc3ccc(F)cc3)cc2C(=O)N([C@H](C)CO)C[C@@H]1C	inactive	inactive	inactive
COc1ccc(C#Cc2ccc3c(c2)[C@]2(C(=O)N3)[C@H](c3ccc(O)cc3)N3[C@H](c4ccccc4)[C@H](c4ccccc4)OC(=O)[C@H]3[C@@H]2C(=O)NC[C@H](O)c2ccccc2)cc1	inactive	inactive	inactive
Cc1cccc(S(=O)(=O)N2C[C@H](O)COC[C@H]3O[C@@H](CC(=O)NCc4ccncn4)CC[C@@H]32)c1	inactive	inactive	inactive
C[C@@H]1CN([C@H](C)CO)C(=O)c2cc(NC(=O)CCC(F)(F)F)ccc2O[C@H]1CN(C)C(=O)Nc1cccc2ccccc12	inactive	inactive	inactive
Cc1noc(C)c1S(=O)(=O)N(C)C[C@H]1Oc2ccc(NS(=O)(=O)c3cn(C)cn3)cc2C(=O)N([C@H](C)CO)C[C@H]1C	inactive	inactive	inactive
C[C@@H]1CCCCO[C@@H](CN(C)Cc2ccc(C(=O)O)cc2)[C@H](C)CN([C@H](C)CO)C(=O)c2cc(NC(=O)c3ccccc3)ccc2O1	inactive	inactive	inactive
Cc1ncc([N+](=O)[O-])n1C	inactive	inactive	inactive
COc1ccc([Si](C)(C)[C@H]2[C@H](CC(=O)N(CCO)Cc3ccccc3)O[C@@]3(C(=O)N(Cc4cccc(N5CCC5=O)c4)c4ccccc43)[C@@H]2C)cc1	inactive	inactive	inactive
C[C@@H]1CN([C@@H](C)CO)C(=O)c2cccc(NC(=O)c3ccncc3)c2O[C@@H]1CN(C)S(=O)(=O)c1ccc(F)cc1	inactive	inactive	inactive
CO[C@H]1CN(C)C(=O)c2ccc(NC(=O)Nc3cccc(F)c3)cc2OC[C@@H](C)N(C(=O)Nc2c(C)noc2C)C[C@@H]1C	inactive	inactive	inactive
CCC(=O)N[C@H]1C=C[C@@H](CC(=O)OC)O[C@@H]1CO	inactive	inactive	inactive
C[C@@H]1CN([C@@H](C)CO)C(=O)c2cc(NC(=O)Cc3cn(C)c4ccccc34)ccc2O[C@H]1CN(C)S(=O)(=O)c1cn(C)cn1	inactive	inactive	inactive
N[C@H]1CC[C@H](CCn2cc(-c3ccccn3)nn2)O[C@@H]1CO	inactive	inactive	inactive
Cc1noc(C)c1S(=O)(=O)Nc1ccc2c(c1)CC(=O)N([C@@H](C)CO)C[C@@H](C)[C@H](CN(C)S(=O)(=O)c1ccc(F)cc1)O2	inactive	inactive	inactive
O=C(C[C@@H]1C=C[C@H](NC(=O)c2cccnc2)[C@H](CO)O1)NCc1ccncn1	inactive	inactive	inactive
O=C(N[C@H]1CC[C@@H](CCNS(=O)(=O)c2ccc(F)cc2)O[C@H]1CO)C1CC1	inactive	inactive	inactive
Cc1ccc(S(=O)(=O)N(C)C[C@@H]2Oc3ncc(C#CC4(O)CCCC4)cc3C(=O)N([C@@H](C)CO)C[C@H]2C)cc1	inactive	inactive	inactive
C[C@@H]1CN([C@H](C)CO)C(=O)c2ccccc2-c2ccccc2CO[C@@H]1CN(C)S(=O)(=O)c1cn(C)cn1	inactive	inactive	inactive
